Source: PubChem BioAssay AID1508624 (National Center for Advancing Translational Sciences (NCATS), 2021)
The campaign covered roughly 48,000 compounds. About 120 (0.25%) were called active. Roughly 4% stayed inconclusive and do not appear here. Calls follow the shape of the dose curve; as a rule, active = well fitted activation curve with a large enough effect; inconclusive = small, poorly fitted or top-dose-only effect, or another doubt; inactive = no such curve, though single readings can be large or run the other way. This is one part of the list.

Experiment: Primary qHTS for Identification of Small Molecule Activators of Huntingtin-Antisense Promoter Activity; also: nearly all actives have a fitted effect of over 55% in size
Settings: HEK293 HTT-AS promoter firefly luciferase reporter, 24 h; series mostly up to 57.5 µM; activity change, positive = activation: at the top concentration
Procedure, shortened: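 HEK293 cells carrying firefly luciferase reporters were seeded at 2,500 per well in Opti-MEM and cultured for 24 h. They were then treated with compounds at up to 57.5 uM final for 24 h at 37 degrees C before Dual-Glo luminescence readout.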

Activity change, positive = activation, inactive:
O=C(COC(=O)C(Cc1c[nH]c2ccccc12)NC(=O)c1ccc(Br)cc1)c1ccc(Cl)cc1 (stereo not drawn) -1.52%
Cc1ccc(N(CC(C)C)S(=O)(=O)c2nnc(NC(=O)c3ccco3)s2)cc1 -41.2%
Cc1cc(C(C)(C)C)c(O)c(C(C)(C)C)c1 -5.5%
CCOC(=O)c1cc(-c2ccccc2)n(CC(=O)Nc2ccc(OC)cc2OC)c1C -14.7%
CCOc1ccc(NC(=O)C2CCN(S(=O)(=O)c3cc(-c4noc(C)n4)ccc3C)CC2)cc1 -12.7%
CSc1cccc(-c2nnc(NC(=O)c3ccc4c(c3)OCCO4)o2)c1 -2.97%
CC(C)CC(=O)NCc1nc2cccnc2n1Cc1ccccc1 -6.89%
CCOC(=O)c1nc(Nc2ccc(C(=O)OCC(C)C)cc2)c2ccccc2n1 -13.9%
O=C(CCc1cn(Cc2ccccc2F)c2ccccc12)NCc1ccc(Cl)cc1 -62.5%
COc1ccc(-c2ccc(NS(=O)(=O)c3cccc(Cl)c3)cc2)nn1 -23.5%
Cc1ccccc1CNC(=O)c1ccc(Cn2c(SCc3cccc(F)c3)nc3cccnc32)cc1 -25.2%
COc1ccc(Cn2ccc3nc(C)c(C(=O)N4CCN(c5ccccc5)CC4)cc3c2=O)cc1 -2.03%
O=C(c1cn(CCOc2ccccc2F)c2ccccc12)C1CCCCC1 -10.2%
COc1ccc(C(=O)c2oc3ccccc3c2NC(=O)c2ccc(F)cc2)cc1 2.99%
CCOC(=O)c1ccc(NC(=O)c2cn(-c3ccccc3)nc2-c2ccc(Br)cc2)cc1 -8.33%
COc1ccc(NC(=O)CSc2oc(-c3cccs3)nc2S(=O)(=O)c2ccc(Br)cc2)c(OC)c1 2.74%
CN/C(=C\[N+](=O)[O-])NCCSCc1ccc(CN(C)C)o1 -5.6%
Cc1cccc(Cn2cc(C(=O)c3ccccc3)c(=O)c3cc4c(cc32)OCO4)c1 -22.1%
Cc1ccc(Nc2sc(C(=O)c3ccccc3)c(N)c2C(=O)NC(C)C)cc1 7.19%
CCc1nonc1NC(=O)c1oc2cc(C)c(Cl)cc2c1C 8.17%
COc1ccccc1N1CCN(C(=O)c2sc3nc4n(c(=O)c3c2C)CCC4)CC1 -3.42%
CCOc1ccc(C(=O)c2cn(Cc3ccccc3OC)c3cc4c(cc3c2=O)OCCO4)cc1 -4.22%
CCCCN(CC)CCNC(=O)c1cn(CCOC)c(=O)c2c1c1ccccc1n2C -3.46%
CCC(=O)N1CCc2cc(S(=O)(=O)CCC(=O)Nc3ccc(Cl)c(C(F)(F)F)c3)ccc21 -40.8%
O=C(NC1CC(=O)N(c2cccc(F)c2)C1)c1ccc(S(=O)(=O)N2CCOCC2)cc1 (stereo not drawn) -17.6%
COc1ccccc1CN1COc2ccc3c(C)cc(=O)oc3c2C1 -3.21%
Cc1ccc(NC(=O)Cn2c(=O)oc3ccccc32)cc1Cl -27.8%
CCOC(=O)c1ccc(NC(=O)CSc2ccc(-c3sc(C)nc3C)nn2)cc1 -21.6%
CCN(CC)S(=O)(=O)c1ccc2c(c1)c(=O)c(C(=O)N(C)Cc1ccccc1)cn2C -2.66%
Cc1cc(C)cc(NC(=O)CSc2nnc(COc3ccccc3Cl)o2)c1 -1.7%
Cc1ccc(C)c(NC(=O)CCCN2C(=O)COc3ccc(C)cc32)c1 -13.3%
Cn1cnc2c(=O)oc3ccc(S(=O)(=O)N4CCN(c5ccccc5)CC4)cc3c21 1.57%
CC(C)(C)OC(=O)N1CCC(c2c(C(=O)Nc3cccc(C(F)(F)F)c3)cnn2-c2ccc(F)cc2F)CC1 -24.4%
COc1ccc(C)cc1NC(=O)c1cc2c(s1)-c1ccccc1SC2 14.7%
CCOC(=O)CC(NC(=O)Cn1nnc(-c2ccc(C(F)(F)F)cc2)n1)c1ccccc1Cl (stereo not drawn) -15.3%
CC(=O)Nc1cc(C(=O)NCc2ccc(F)cc2)ccc1Sc1ccc(C)cc1 -31.5%
CC1CCN(S(=O)(=O)c2ccc3ncn(CC(=O)Nc4ccccc4C(F)(F)F)c(=O)c3c2)CC1 -34.2%
Cc1nn(-c2ccccc2)c(-n2cccc2)c1C(=O)NCc1ccccc1Cl -28.7%
Cc1cc(OCC(=O)Nc2cnn(CCCC(=O)O)c2)ccc1Cl -5.45%
O=C1CN(C(=O)c2ccc(Cl)cc2Cl)C(c2ccc(F)cc2)c2cc(F)ccc2N1 (stereo not drawn) -12%
CCOC(=O)C1CCN(C(=O)CSc2n[nH]c(-c3ccccc3Cl)n2)CC1 -8%
CN(C)c1ccc(C(CNC(=O)Cc2ccc(Cl)cc2)N2CCOCC2)cc1 (stereo not drawn) -25.9%
Cc1ccc(CCNC(=O)CN2C(=O)COc3ccc(S(=O)(=O)N4CCCCC4)cc32)cc1 -16.4%
Cc1ccc(Nc2nnc(-c3ccc(C)c(S(=O)(=O)N4CCCCC4)c3)c3ccccc23)cc1 1.7%
CCOc1ccc2c(c1)[C@@H]1C=CC[C@@H]1[C@H](c1ccccc1Cl)N2 -15.2%
COc1ccc(OC)c(NCc2cccn2-c2nnc(N3CCC(C)CC3)s2)c1 -11%
CC(C)(C)OC(=O)N1CCC(c2c(C(=O)Nc3ccc4c(c3)OCCO4)cnn2-c2ccc(F)cc2)CC1 10.7%
Cc1ccc(CNC(C)c2ccccc2)s1 (stereo not drawn) -0.325%
Cc1cccc(-c2nc3c(cnn3-c3ccccc3)c(=O)n2-c2cccc(Cl)c2)c1 -16.1%
O=C(NCCc1ccccc1)c1ccc2c(c1)N(Cc1ccccc1)C(=O)c1ccccc1S2=O (stereo not drawn) -19.2%
CCOC(=O)C1CCN(c2cc3c(cc2NC(=O)c2ccc(OC)c(OC)c2)n(C)c(=O)n3C)CC1 -27.3%
CC1CCCCN1S(=O)(=O)c1ccc(F)c(C(=O)Nc2ccccc2C(F)(F)F)c1 (stereo not drawn) 2.75%
COC(=O)c1ccccc1C(=O)c1ccc(OCCN2CCCCC2)cc1 -5.17%
CCC(C)NC(=O)Cn1c(=O)n(CCCC(=O)NCc2ccc(C)cc2)c(=O)c2ccccc21 (stereo not drawn) -4.62%
Cc1cn2c(=O)cc(COc3cc(C)c(Cl)c(C)c3)nc2s1 -11.9%
CCOc1ccc(NC(=O)CN(c2ccccc2OCC)S(=O)(=O)c2ccccc2)cc1 1.76% [at 11.5 µM, percent change from vehicle, -100% = no light]
Cc1cc(Cl)ccc1NS(=O)(=O)c1ccc2c(c1)CCN2S(C)(=O)=O -6.67%
Cc1cc(=O)n(Cc2cccc(Br)c2)c2c1c(C)nn2-c1ccccc1 -0.876%
COc1ccc(S(=O)(=O)N2CCN(Cc3nc4ccc(C)cc4o3)CC2)cc1OC -22.6%
CCCn1c2ccccc2c2cnn(CC(=O)Nc3cccc(C(=O)OCC)c3)c(=O)c21 -26.8%
CC(C)OC(=O)c1cc2c(OCC(O)CNC(C)(C)C)cccc2[nH]1 (stereo not drawn) -11.9%
CCOc1ccc(CNC(=O)CN2C(=O)CCn3nc(-c4cn(C)c5ccccc45)cc32)cc1OC -8.73%
CCOc1ccc(NC(=O)CSc2cc(C)c3ccccc3n2)cc1 -3.27%
O=C(NCc1cccs1)c1nn(-c2ccccc2)nc1CO -27.9%
COc1ccc(CCNC(=O)Cc2c(C)c3c(cc(C)c4c(C)c(C)oc43)oc2=O)cc1OC -2.82%
Cc1ccc(NC(=O)Cn2c(=O)n(-c3ccc(C)cc3)c(=O)c3ccc(C(=O)NCc4ccccc4Cl)cc32)cc1 -64.1%
Cc1ccc(S(=O)(=O)c2nc(-c3ccco3)oc2SC(C)C)cc1 -11.9%
CC(=O)Nc1nonc1-c1nnc(SCc2ccc(F)cc2Cl)n1C -6.37%
Cc1cc(C)cc(NC(=O)c2sc3nc(-c4ccccc4)cn3c2C)c1 -26%
Cc1ccc(NC(=O)CN2Cc3ccccc3C2=O)c(C)c1 5.31%
CCOC(=O)c1cccc(NC(=O)CCS(=O)(=O)c2ccc(Br)s2)c1 -26.7%
COc1ccc(/C=C/C(=O)Nc2ccc3nc(N4CCC(C)CC4)cc(C)c3c2)cc1OC -28.6%
Cc1c(C)n(Cc2ccc(F)cc2)c2ccc(C(=O)N3CCN(c4ccc(Cl)cc4)CC3)cc12 -14.3%
Cn1c(=O)c2c(nc(SCC(=O)Nc3ccc(F)cc3F)n2Cc2ccccc2)n(C)c1=O -33.3%
COc1cccc(C2C(C(=O)Nc3ccc(Cl)cc3)=C(C)Nc3c(C(=O)Nc4ccccc4)cnn32)c1OC (stereo not drawn) -28.8%
CC1(C(=O)NC2CCCCC2)Cc2ccccc2C(=O)N1Cc1ccc(Cl)cc1 (stereo not drawn) -2.2%
Cc1oc2ncnc(N3CCCCC3)c2c1C(=O)Nc1cccc(Cl)c1C -21.2%
CCC1CCCCN1S(=O)(=O)c1ccc(NC(=O)c2nc(SC)ncc2Cl)cc1 (stereo not drawn) -25.7%
Cn1c2c(c(=O)n(C)c1=O)C(c1cc(Br)ccc1F)CC(=O)N2 (stereo not drawn) -11.1%
Cc1nc2cc(-c3ccccc3)nn2c(C)c1CCC(=O)NCCc1ccccc1 -74%
Cc1ccc2[nH]c(CSc3nnc(NC(=O)COc4ccccc4C)s3)cc(=O)c2c1 -30.2%
Cc1cccc(C)c1NC(=O)c1c(C)oc2c1C1=NCCN1C=N2 6.11%
COc1ccc(CC(=O)Nc2ccc(-c3nc4ccccc4s3)cc2Cl)cc1OC -12.6%
COc1ccc(Nc2cc(C(=O)NCCCN(C)c3ccccc3)c3ccccc3n2)c(OC)c1 -14.3%
CCOC(=O)c1ccc(Nc2nc(N)c3cc(OC)c(OC)cc3n2)cc1 -9.86%
COC(=O)c1ccc(NC(=O)c2cc(S(=O)(=O)N3CCC(C)CC3)cn2C)cc1 -11.9%
Cc1c(Cl)cccc1-n1c(SCC(=O)NCc2ccccc2)nc2n[nH]c(C)c2c1=N -56.7%
Cc1ccc(Nc2cc(=O)[nH]c(=O)[nH]2)cc1C -0.408%
COc1cccc(C(=O)N2CC(=O)Nc3ccc(C)cc3C2c2ccc(F)cc2)c1OC (stereo not drawn) -6.29%
Cc1ccc(C(=O)N2c3ncnn3C3(CCCCC3)[C@@H]3CCCC[C@@H]32)cc1 -29.9%
COc1ccc(OC)c(CNC(=O)CCc2c(C)nc3c(c2C)c(=O)n(C)c(=O)n3C)c1 -10.2%
Cc1ccc2oc(=O)c(-c3nc4ccc(C)cc4[nH]3)cc2c1 22.2%
CS[C@H]1SC[C@@H]2C(=O)N(C)[C@H](C(C)C)C(=O)OC[C@H](NC(=O)c3cnc4ccccc4n3)C(=O)N[C@H](C)C(=O)N(C)[C@@H]1C(=O)N(C)[C@H](C(C)C)C(=O)OC[C@H](NC(=O)c1cnc3ccccc3n1)C(=O)N[C@H](C)C(=O)N2C -30.6%
